# Laboratory results taken from PubChem BioAssay AID1347120 (National Center for Advancing Translational Sciences (NCATS), 2019).
# The whole screen tested about 390,000 compounds, of which about 930 (0.24%) were called active. The inconclusive results got no clear call from the source; some entries with a clear call stand among them for comparison. The call rests on the fitted dose curve; in most records, active means well fitted activation curve with a large enough effect; inconclusive means small, poorly fitted or top-dose-only effect; inactive means no such curve, though single readings can be large or run the other way. A potency beside an inconclusive call is a rough fit, not a confirmed value.
# Assay: qHTS for Suppressors of FUS Proteinopathy: Primary screen using FUS-linked yeast assay; further: nearly all actives have a fitted effect of over 55% in size;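 on growth rescue (activation): plate controls were DMSO vehicle for no effect and reference control for full effect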
# Conditions: S. cerevisiae FUS-expressing, OD600, 24 h; Potency: growth rescue; growth rescue (activation): at 76.6 µM (top of the series)
# Summary of the method: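 S. cerevisiae expressing FUS from galactose induction served as the toxicity model. Growth after 24hr at 30C, read as absorbance at 600 nm, indicates suppression of toxicity; compounds dosed at several concentrations.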
# Potency means the concentration at half of the fitted maximal effect; tags describe the fitted curve by direction and shape.
SMILES,Potency,growth rescue (activation)
CCCCCC(=O)N1C[C@H](O)[C@@H](n2cc(COC(=O)c3ccccc3)nn2)C[C@@H]1c1ccc(Cl)cc1,"inconclusive: 50.1 µM [activator, single point]",
CC(C)Cc1nc(N2CCN(C(=O)c3ccco3)CC2)c(C#N)c2c1CCC2,"inconclusive: 14.1 µM [activator, partial curve]",
O=C(Nc1ccc(Cl)c(Cl)c1)Nc1cc(S(=O)(=O)N2CCOCC2)ccc1N1CCCC1,"inconclusive: 20 µM [activator, single point]",
CCc1ccc(CCNC(=O)OCCCN2CCC3(CCC(C)CC3)C2=O)cc1 (configuration not stated),"inconclusive: 28.2 µM [activator, single point]",
CCOc1ccc(NC(=O)CN(C)C(=O)c2cc3c(s2)CCC(C)C3)cc1OCC (configuration not stated),"inconclusive: 35.5 µM [activator, single point]",
COc1ccc(C)cc1NC(=O)c1oc2ccc(S(=O)(=O)N3CCC4(CC3)OCCO4)cc2c1C,inactive,
CSc1ncc(CN2CCCC(C(=O)c3ccc(C(C)(C)C)cc3)C2)cn1 (configuration not stated),inactive,
CCn1c(CN2CCOCC2)nc2cc(NC(=O)c3cccc([N+](=O)[O-])c3)ccc21,inactive,
NC(=O)CSc1nc2sc3c(c2c2ncnn12)CCCC3,"inconclusive: 11.2 µM [activator, partial curve]",
Nc1ccccc1N=Cc1ccc(-c2cccc(Cl)c2)o1,inactive,
O=C(NCCO)c1cccc(-c2cnc3c(Nc4cccc(OC(F)(F)C(F)F)c4)nccn23)c1,"inconclusive: 50.1 µM [activator, single point]",
CCC(=O)Nc1ccc(-c2cc(-c3ccccc3)nc(-c3ccc(NC(=O)CC)cc3)n2)cc1,"inconclusive: 31.6 µM [activator, partial curve, poor fit]",
COc1ccc(NC(=O)CSc2nnc(-c3ccco3)c(-c3ccco3)n2)cc1OC,"inconclusive: 50.1 µM [activator, partial curve, poor fit]",
CC(C)Oc1ccc(CNC(=O)c2ccc3c(c2)nc2n3CCOC2)cc1,inactive,
CCCN(CCC)c1nc(-c2ccccn2)nc2ccccc12,inactive,
Cc1cc(-c2nnc(-c3ccccc3)c(-c3ccccc3)n2)c(C)o1,"inconclusive: 35.5 µM [activator, partial curve, poor fit]",
O=[N+]([O-])c1cccc(-c2c(-c3ccccc3)ncc3cc(F)ccc23)c1,inactive,
CCN(c1ccccc1C)S(=O)(=O)c1nnc(NC(=O)c2ccccc2C)s1,inactive,
O=C(CCn1nc(-c2ccccc2)c2ccccc2c1=O)N1CCN(c2ccccc2)CC1,"inconclusive: 50.1 µM [activator, single point]",
COc1ccc(C(=O)Nc2ccc3nc4c(c(Nc5ccccc5OC)c3c2)CCCC4)c(OC)c1,"inconclusive: 50.1 µM [activator, single point]",
Cc1ccc(C)c2nc(SCC(=O)NCc3cccs3)c(C#N)cc12,inactive,

SMILES,Potency,growth rescue (activation)
CCOC(=O)c1c(-c2ccccc2)oc2ccc(OCC(=O)NN)cc12,"inconclusive: 31.6 µM [activator, single point]",
COc1ccc2c(COC(=O)[C@H](C)NS(=O)(=O)c3ccccc3F)cc(=O)oc2c1,"inconclusive: 28.2 µM [activator, partial curve, poor fit]",
CCOC(=O)c1c(C)[nH]c(C(=O)OCC(O)=C(C#N)c2nc3ccccc3[nH]2)c1C,"inconclusive: 15.8 µM [activator, partial curve]",
COc1ccc(S(=O)(=O)N2CCOC2CNC(=O)C(=O)NCCc2ccccc2OC)cc1 (configuration not stated),"inconclusive: 28.2 µM [activator, single point]",
Cc1ccc(NC(=O)C2(C)CCN2C(=O)CC(c2ccccc2)c2ccccc2)cc1 (configuration not stated),"inconclusive: 50.1 µM [activator, single point]",
CCN(CC(=O)Nc1c(F)cccc1F)C(=O)/C=C/c1ccc(S(=O)(=O)N2CCCCCC2)cc1,"inconclusive: 50.1 µM [activator, partial curve, poor fit]",
CCOc1ccc(C(=O)/C=C/c2cn(CC(O)CN3CCc4ccccc43)c3ccccc23)cc1 (configuration not stated),"inconclusive: 35.5 µM [activator, single point]",
Cc1ccc2cccc(S(=O)(=O)N3CCN(c4ccccc4F)CC3)c2n1,"inconclusive: 28.2 µM [activator, single point]",
C#CCOCCOCCOCCNc1nc(N2CCN(C(=O)CCCCCCCCCCNC(=O)[C@H]([C@@H](C)CC)n3cc(CCCCCN)nn3)CC2)nc(N2CCN(C(=O)CCCCCCCCCCNC(=O)[C@@H]([C@H](C)O)n3cc(C)nn3)CC2)n1,active: 12.6 µM,
COc1ccc(-c2cc3nc(-c4ccccc4)cc(N4CCC(O)CC4)n3n2)cc1,"inconclusive: 17.8 µM [activator, partial curve, poor fit]",
O=C(NC1CCc2ccccc21)C12CN(Cc3ccccc3)CC1C(c1cccc([N+](=O)[O-])c1)=NO2 (configuration not stated),"inconclusive: 35.5 µM [activator, single point]",
Cc1ccc(Cn2c(=O)n(-c3cccc(C(F)(F)F)c3)c(=O)c3c(C)c(C)sc32)c(C)c1,inactive,
O=C(CN1C(=O)COc2ccc(S(=O)(=O)N3CCCCCC3)cc21)N1CCN(c2ccc(F)cc2)CC1,inactive,
CCCOc1ccc(NC(=O)Cc2ccc(S(=O)(=O)N3CCOCC3)s2)cc1OCCC,"inconclusive: 44.7 µM [activator, single point]",
C[C@H](CO)N1C[C@H](C)[C@@H](CN(C)C(=O)Nc2ccc(C(F)(F)F)cc2)Oc2ccc(NC(=O)Nc3ccccc3)cc2C1=O,"inconclusive: 22.4 µM [activator, single point]",
CCOc1ccc(-n2c(SCc3nc(-c4ccc(C)cc4)no3)nnc2-c2ccncc2)cc1,"inconclusive: 17.8 µM [activator, partial curve, poor fit]",
Nc1nonc1-n1nnc(C(=O)N/N=C/c2ccccc2Cl)c1COc1ccc(F)cc1,inactive,
COc1ccc(-n2c(O)c(Cc3ccccc3)c(=O)n3nc(-c4ccccc4)c(=O)cc23)cc1,"inconclusive: 50.1 µM [activator, single point]",
COc1cc(CNC(=O)c2ccc3nc(Cc4ccccc4)oc3c2)cc(OC)c1OC,"inconclusive: 35.5 µM [activator, single point]",
COc1ccc2[nH]c3c(c2c1)CCN1C(=O)N([C@@H](C)C(=O)NCCc2ccc(F)cc2)C(=O)[C@]31C,"inconclusive: 31.6 µM [activator, single point]",
CCn1c(SCC(=O)N/N=C/c2ccc(C)o2)nnc1-c1ccc(C(C)(C)C)cc1,"inconclusive: 15.8 µM [activator, partial curve]",

SMILES,Potency,growth rescue (activation)
CC(C)c1cc(C(=O)OCC(=O)NC2CC2)c(O)c(C(C)C)c1,"inconclusive: 20 µM [activator, partial curve]",
COc1ccc2ccccc2c1C1CC(=O)N2CN(Cc3ccco3)CSC2=C1C#N (configuration not stated),"inconclusive: 35.5 µM [activator, single point]",
O=C(NCCSc1c[nH]c2ccccc12)c1ccc(Br)o1,inactive,
O=C(C(=O)N1CCC(Cc2ccccc2)CC1)c1cccs1,inactive,
COCCN(C(=S)Nc1cc(C)cc(C)c1)C(C)c1cccnc1 (configuration not stated),inactive,
COc1ccccc1-c1nnc2sc(COc3ccc(Cl)cc3)nn12,"inconclusive: 28.2 µM [activator, partial curve, poor fit]",
CCCN(C(=O)c1cc(S(=O)(=O)N2CCc3ccccc32)cn1C)c1ccc(OCC)cc1,"inconclusive: 31.6 µM [activator, single point]",
Cc1ccc(-c2nn(-c3cccc(F)c3)cc2CNCc2cccnc2)o1,"inconclusive: 31.6 µM [activator, partial curve]",
CCOc1ccc(C2C(C(=O)Nc3ccccc3)=C(C)Nc3nc(-c4ccccc4Cl)nn32)cc1OC (configuration not stated),active: 31.6 µM,
O=c1[nH]c(C2CCN(S(=O)(=O)c3ccccc3)CC2)nc2c1nnn2Cc1cccc(Cl)c1,"inconclusive: 50.1 µM [activator, single point]",
Cc1sc2ncnc(N3CCC(C(=O)NNC(=O)COc4cccc(C(F)(F)F)c4)CC3)c2c1C,"inconclusive: 50.1 µM [activator, single point]",
Cc1ccnc(NS(=O)(=O)c2ccc(NC(=O)C3CCCCC3C(=O)O)cc2)n1 (configuration not stated),,inconclusive: 65.6% [activator]
COc1ccc(S(=O)(=O)Oc2ccc3cccc(N)c3c2)cc1,inactive,
O=C(c1ccccc1)N1CCC(Oc2cccnc2)CC1,inactive,
CCN(Cc1ccccc1)C(=O)c1oc2ccc(S(=O)(=O)N3CCOCC3)cc2c1C,inactive,
CCCNC(=O)c1cc2c(c(-c3cccc(-c4cc5ccccc5o4)c3)n1)[C@H](CCO)N(C(=O)NC(C)C)C2,"inconclusive: 14.1 µM [activator, partial curve, poor fit]",
Cc1ccc(Cc2nc3ccccc3nc2SCC(=O)N2CCC(C)CC2)cc1,"inconclusive: 50.1 µM [activator, single point]",
Cc1ccc(CNC(=O)c2ccc(CSc3nc4ccncc4n3Cc3ccc(C)cc3)cc2)cc1,"inconclusive: 14.1 µM [activator, partial curve, poor fit]",
O=C(COc1ccc(S(=O)(=O)N2CCc3ccccc32)cc1Cl)NCc1ccccn1,"inconclusive: 22.4 µM [activator, single point]",
COc1cccc(C(=O)Nc2ccc3nc(SCC(=O)N(C)c4ccccc4)sc3c2)c1,"inconclusive: 22.4 µM [activator, partial curve, poor fit]",
